Measured values published in article PMC5892938.
Some of the results follow. At the low end of the ranking the order means little.

Target: GST-SBP-SLBP (stem-loop binding protein) (UniProt Q14493)
Assay: targeted RNA Bind-n-Seq;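 also: DESeq read counts versus GST-SBP nonspecific binding control pulldown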
Conditions: RBNS binding buffer: 25 mM Tris pH 7.5, 150 mM KCl, 3 mM MgCl2, 0.1% Tween, 0.5 mg/mL BSA, 1 mM DTT; 27 nM protein, 750 pM RNA pool; temperature not stated; high values mean tight binding

| Sequence | binding signal (log2 fold change) |
| --- | --- |
| GGUCACGUCUCAAUCAACUCAUCAGAGGGGGGGAAAACCCCUUUGCCCUCAAUCUCAACAGCUCGCAGUCAAG | 0.0463 |
| GGUCACGUCUCAAUCAACUCCUUCGAGGGGGGGAAAACCCCUUUACCCUCUUUUUCAACAGCUCGCAGUCAAG | -0.364 |
| GGUCACGUCUCAAUCAACUCAUUCUCCAGGGAAACCCCUGGCUAUUUCAACAGCUCGCAGUCAAG | 0.0585 |
| GGUCACGUCUCAAUCAACUCAAUAGAGGGGGGGAAAACCCCUUUACCCUCACCAUCAACAGCUCGCAGUCAAG | 0.306 |
| GGUCACGUCUCAAUCAACUCAUCCUCAGGAGUUUCCUCCUGUAAACUCAACAGCUCGCAGUCAAG | 0.144 |
| GGUCACGUCUCAAUCAACUCAUGUCCAGGAGUUUUCUCCUGUUUAUUCAACAGCUCGCAGUCAAG | -0.0729 |
| GGUCACGUCUCAAUCAACUCAUCUCCAGGAGUUUCCUCCUGCUUAUUCAACAGCUCGCAGUCAAG | -0.0639 |
| GGUCACGUCUCAAUCAACUCAAUUUCAGGAGUUUUCUCCUGCUAAUUCAACAGCUCGCAGUCAAG | -0.027 |
| GGUCACGUCUCAAUCAACUCAACUUCAGGAGUUUUCUCCUGUAUUCUCAACAGCUCGCAGUCAAG | 0.159 |
| GGUCACGUCUCAAUCAACUCAUACGAGGGGGGGAAAACCCCUUUACCCUCAGAAUCAACAGCUCGCAGUCAAG | -0.201 |
| GGUCACGUCUCAAUCAACUCAUUCUCAGGAGUUUACUCCUGUAUUUUCAACAGCUCGCAGUCAAG | 0.0241 |
| GGUCACGUCUCAAUCAACUCUACUUCCAGGGAAAACCCUGGUAUUCUCAACAGCUCGCAGUCAAG | 0.115 |
| GGUCACGUCUCAAUCAACUCUUUUUCCAGGGAAAACCCUGGUAUUCUCAACAGCUCGCAGUCAAG | -0.0815 |
| GGUCACGUCUCAAUCAACUCAACUUCCAGGGAAAGCCCUGGCUAUCUCAACAGCUCGCAGUCAAG | -0.31 |
| GGUCACGUCUCAAUCAACUCAAUCCCCAGGGAAAUCCCUGGCAUUUUCAACAGCUCGCAGUCAAG | -0.143 |
| GGUCACGUCUCAAUCAACUCUCCAGAGGGGGGGAAAACCCCUUUGCCCUCAUCAUCAACAGCUCGCAGUCAAG | -0.827 |
| GGUCACGUCUCAAUCAACUCAUCGUCAGGAGUUUACUCCUGCAAUUUCAACAGCUCGCAGUCAAG | -0.0153 |
| GGUCACGUCUCAAUCAACUCUCCCGAGGGGGGGAAAACCCCUUUGCCCUCACAAUCAACAGCUCGCAGUCAAG | -0.107 |
| GGUCACGUCUCAAUCAACUCAAUUUCCAGGGAAAACCCUGGCAUUUUCAACAGCUCGCAGUCAAG | -0.117 |
| GGUCACGUCUCAAUCAACUCAAUCCCAGGAGUUUACUCCUGCAUUUUCAACAGCUCGCAGUCAAG | 0.0932 |
